Laboratory results published in PubChem BioAssay AID504444 (National Center for Advancing Translational Sciences (NCATS), 2011).
The whole screen tested about 360,000 compounds, of which about 7,500 (2.1%) were called active. Roughly 20% stayed inconclusive and do not appear here. Calls come from the whole dose curve; as a rule, active = well fitted inhibition curve with a large enough effect; inconclusive = small, poorly fitted or top-dose-only effect, or effect the other way; inactive = flat fitted curve, though single readings scatter. Only a part is listed here, and it is no random draw.

Assay: Nrf2 qHTS screen for inhibitors; note: nearly all actives have a fitted effect of over 60% in size
Details: A549 ARE-Fluc reporter, luciferase luminescence, 18-24 h; series mostly up to 46 µM; activity change, negative = inhibition: at the top concentration
Method in brief: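 Quantitative HTS in A549 cells stably bearing an antioxidant response element-firefly luciferase construct. Inhibition of Nrf2-driven transcription was scored by luminescence after 18-24 h of compound exposure at 37 °C.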
% is set by controls: 0 for no effect and ±100 for the full control effect; potency is the fitted concentration of half-maximal effect.

Activity change, negative = inhibition, inactive:
O=C(Nc1cccc(F)c1)c1cccc2c1C(=O)N(C1CCCCC1)C2 12.1%, Cc1ccc2nc(-c3ccco3)c(Nc3ccccc3)n2c1 8.44%, Cc1ccsc1/C=C1\SC(N2CC(C)OC(C)C2)=NC1=O (centres undefined) -19.1%, CC1=NN(c2ccccc2)C(=O)/C1=C\C=C1\N(C)c2ccccc2C1(C)C -16.7%, Cc1ccccc1NC(=O)C1CCN(S(=O)(=O)c2cccc3nonc23)CC1 -10.3%, CCOC(=O)CCCC(=O)Nc1ncnc2c1C(c1ccccc1)c1c(ccc3ccccc13)O2 (centres undefined) 23.1%, COc1ccc(C(=O)N2CCN(CCc3ccccn3)CC2)cc1 0.132%, COc1ccccc1/C=C/C=N/n1c(C2CCCCC2)n[nH]c1=S -7.58%, Cn1cc(C(=O)N2CCN(c3ccccc3)CC2)c(=O)c2cc(S(=O)(=O)N3CCCC3)ccc21 -0.295%, O=C(Nc1nnc(S(=O)(=O)N2CCCCCC2)s1)c1ccc(Br)cc1 0.408%, CCC1CN(S(=O)(=O)c2cc(-c3cc(C)no3)ccc2OC)c2cc(C)ccc2O1 (centres undefined) 0%, CC(=C/c1ccco1)/C=N/N1CCN(c2ccccc2)CC1 5.31%, C#Cc1ccc([C@H]2C=C(C(=O)N3CCN(Cc4ccccc4)CC3)O[C@@H](OCC)[C@@H]2CCCO)cc1 -14.1%, CCOc1ccc(NS(=O)(=O)c2ccc3c(c2)CCN3C(C)=O)cc1 -8.31%, O=c1cc(-c2ccccc2)nc2cc(-c3ccc(F)cc3)[nH]n12 2.63%, Cc1cccc(NC(=O)c2nc[nH]c2C(=O)N[C@@H](C)c2ccccc2)c1 -29.5%, CCN1C(=O)/C(=C\N(C)C)c2ccccc21 7.13%, C=CC[C@@H](CC(=O)N[C@@H](CO)Cc1ccccc1)C(=O)N[C@@H](COC(=O)[C@@H](CC=C)CC(=O)OC(C)(C)C)Cc1c[nH]c2ccccc12 5.14%, O=S(=O)(c1ccccc1F)N1CCC(Oc2ccc(-n3cnnn3)cc2)CC1 -0.325%, O=C(NCc1ccccc1)C1=C[C@H](c2ccc(C(F)(F)F)cc2)C[C@H](OCc2ccc(CO)cc2)O1 -1.71%, CCOC(=O)/C(C#N)=C/c1c(OCC)n(CC)c2ccccc12 -5.61%, O=C(C1CCCN(S(=O)(=O)c2cccc3nonc23)C1)N1CCN(c2cccc(Cl)c2)CC1 (centres undefined) 2.64%, CCc1ccc(NC(=O)C(NS(=O)(=O)c2cccc3nsnc23)c2ccccc2)cc1 (centres undefined) -10.1%, CCc1nn(CC(=O)NCCCN2CCN(CC)CC2)c(=O)c2cc3occc3n12 1.71%, CCc1cccc(NS(=O)(=O)c2ccc(-n3cccn3)cc2)c1 -2.46%, CCn1cc(C(=O)N2CCN(c3cccc(Cl)c3)CC2)c2cc(OC)c(OC)cc2c1=O -11.7% [at 9.27 µM], C=CCC[C@H](Cc1ccc(F)cc1)C(=O)OC[C@H](C)NC(=O)[C@@H](CC=C)CC(=O)N[C@H](CO)Cc1ccccc1 -27.4%, COC(=O)c1cc(S(=O)(=O)NCC2CCN(Cc3ccc(C)cc3)CC2)cn1C -4.11%, COC(=O)c1ccccc1NC(=O)CCCN1C(=O)C(c2ccccc2)Oc2cccnc21 (centres undefined) -15.4%, C[C@H](NC(=O)[C@@H]1Cc2ccccc2CN1C(=O)OC(C)(C)C)C(=O)NC1CCCC1 -6.96%, Cc1ccccc1OCC(=O)Nc1nnc(S(=O)(=O)N2CCCC2)s1 -2.06%, C[C@H]1CC[C@@]2(O[C@H](CCO)C[C@H](O)[C@H]2O)O1 7.61%, COC(=O)[C@@]12CCCCN1[C@H](c1ccc(-c3ccc(OC)cc3)cc1)[C@H]1C(=O)N(C)C(=O)[C@H]12 -11%, CCN(CC)S(=O)(=O)c1ccc(OC)c(-n2cnnn2)c1 -1.98%, Cc1c(C)n(C)c2ccc(C(=O)NCCCN3CCCCC3C)cc12 (centres undefined) 4.67%, CCn1cc(CCC(=O)NCc2ccccc2OC)c2ccccc21 10.4%, CCOCCCNC(=O)C(Cc1ccccc1)NS(=O)(=O)c1ccc2c(c1)c(=O)n(C)c(=O)n2C (centres undefined) 5.6%, O=C(O)/C=C/c1cn(-c2ccccc2)nc1-c1cc2ccccc2o1 -16.9%, CCOC(=O)c1ccc(-n2c(C)nc3c(cnn3-c3ccc(Cl)cc3)c2=O)cc1 0.309%, N#Cc1nc(-c2ccc(OCc3ccccc3)cc2)oc1N1CCC(C(N)=O)CC1 11.9%, Cc1nc2ccccc2nc(=O)c1NNc1ccccc1 7.47%, Cn1nnnc1Sc1ncnc2scc(-c3ccc(C(F)(F)F)cc3)c12 -117%, COc1ccccc1CNC(=O)CN1C(=O)COc2ccc(S(=O)(=O)NC3CCCC3)cc21 -24.3%, CC(C)C[C@H](CO)N(Cc1ccccc1)S(=O)(=O)N(Cc1ccccc1)[C@@H](CO)CC(C)C -132%, CCc1cccc(C)c1NC(=O)Cn1nc(C)n2cccc2c1=O -1.85%, CCOC(=O)C(C)Sc1ccc2nnc(CCNS(=O)(=O)c3ccc(C)cc3)n2n1 (centres undefined) -3.81%, COc1ccc(S(=O)(=O)Nc2c(C)nc3nc[nH]n3c2=O)cc1 -2.67%, COc1ccc2c(c1)cc1c(=O)n(CC(=O)NC(C)CCc3ccccc3)nc(C)n12 (centres undefined) 3.07%, Cc1ccc(-n2ncc3c(Nc4cccc(C(=O)O)c4)ncnc32)cc1 27.3%, CCc1ccc(NC(=O)CSc2nnc(CC)c(CC)n2)cc1 11%, CCc1ccc(NC(=O)C2CCCN(S(=O)(=O)c3ccc4[nH]c(=O)ccc4c3)C2)cc1 (centres undefined) -23.5%, COC(=O)[C@H](CC(C)C)NS(=O)(=O)N(Cc1ccccc1)[C@@H](CC(C)C)C(=O)OC -13.7%, CC(C)c1ccc(NC(=O)Cn2nnc(C(=O)NCc3ccc4c(c3)OCO4)c2N)cc1 7.81%, Cc1ccccc1NC(=O)CSc1ccc(-c2ccccn2)nn1 -0.722%, C/C=C(/C)C(=O)O[C@@H]1c2c(ccc3ccc(=O)oc23)OC(C)(C)[C@@H]1OC(C)=O -15.6%, C=C1CCC2[C@](C)(CO)[C@H](O)CC[C@@]2(C)[C@@H]1C/C=C1\C(=O)OC[C@H]1O (some centres undefined) -11.3%, COc1ccc([C@H]2[C@@H]3C=CCC[C@@]3(C)C(=O)N2Cc2ccccc2)cc1Cl -21.4%, CCC(C)NC(=O)Cn1ccc2cc(S(=O)(=O)N3CCCCCC3)ccc21 (centres undefined) -23.7%, Cc1ccc(NC(=O)CCCn2nc(C)c3c(C)n(-c4ccccc4)nc3c2=O)c(Cl)c1 -10.6%, O=S(=O)(c1ccc2c(c1)OCCO2)C1CCC(S(=O)(=O)c2c(F)cccc2F)CC1 (centres undefined) 1.21%, C[C@@H]1CC[C@@]2(O[C@H](CCO)C[C@@H](O)[C@@H]2O)O1 1.22%, COc1ccccc1CN1C(=O)[C@H]2Cc3c([nH]c4ccccc34)C(C)(C)N2C1=O -1.56%, C=CCC[C@H](Cc1ccc(F)cc1)C(=O)OC[C@@H](Cc1c[nH]c2ccccc12)NC(=O)[C@H](CC=C)CC(=O)NCCO -24%, C=C(C1=CCN(S(=O)C(C)(C)C)[C@@H]1CCO)c1ccccc1 (some centres undefined) -14.5%, CCc1cccc(NC(=O)CCC(=O)N2CCSc3ccccc32)c1 15.7%, Fc1ccc(Nc2c3c(nc4ccccc24)CCC3)cc1 5.07% [at 9.27 µM], COc1ccccc1/C=C/c1nc(C#N)c(N(C)C)o1 -15.3%, O=C(c1ccc2c(c1)N(Cc1ccccc1F)C(=O)c1ccccc1S2(=O)=O)N1CCCC1 -18.6%, C=CC(COCc1ccccc1)N(Cc1ccccc1)S(=O)(=O)c1ccccc1Br (centres undefined) -4.97%, CC(C)NC(=O)CCN1C(=O)c2ccccc2Sc2ncccc21 0.109%, CCn1c(=O)cc(OCC(=O)N2CCN(c3ccc(F)cc3)CC2)c2ccccc21 -10.3%, CC[C@H]1c2[nH]c3ccccc3c2C[C@H]2C(=O)N(c3ccc(F)cc3)C(=O)N21 -24.6%, O=C(c1cc(-c2ccc(O)cc2)on1)N1CCN(c2ccccc2)CC1 -1.6%, Cc1cc(/C=C(/C#N)C(=O)Nc2ccccc2)c(C)n1-c1cccnc1 13.5%, O=C(CCCN1C(=O)/C(=C\c2cccs2)SC1=S)NNC(=O)c1ccncc1 2.4%, Cc1ccc(NC(=O)Cn2nnc(C(=O)NCCc3ccccc3)c2N)cc1Cl 6.16%, C=CC1=CCN(S(=O)C(C)(C)C)[C@H]1CCO (some centres undefined) 20.2%, CCOC(=O)C1CCCN(CCC(=O)Nc2cccc(C)c2)C1 (centres undefined) 4.36%, COc1ccccc1N1CCN(C(=O)c2cc(-c3ccccc3O)on2)CC1 10.8%

Potency, inactive:
O=c1c2ccccc2sn1-c1ccc(S(=O)(=O)N2CCCCC2)cc1, Nc1ccc(S(=O)(=O)Nc2ccnn2-c2ccccc2)cc1, C[C@H](CCC(=O)O)[C@H]1CC[C@H]2[C@@H]3CC[C@@H]4C[C@H](O)CC[C@]4(C)[C@H]3C[C@H](O)[C@]12C

Potency, active:
CCOc1ccc(CCNC(=O)c2cc3ccccn3n2)cc1OCC 20.6 µM, O=C(C1CCC(CNS(=O)(=O)c2cccs2)CC1)N1CCN(c2ccc(Cl)cc2)CC1 (centres undefined) 8.2 µM, Cc1cccc(Cc2c(C)nc3c(C(=O)N4CCN(Cc5ccc6c(c5)OCO6)CC4)cnn3c2C)c1 18.4 µM, CCC(=O)NC(c1cc(Cl)c2cccnc2c1O)c1cccn1C (centres undefined) 25.9 µM, CNC(=O)c1ccsc1NC(=O)c1ccc(S(=O)(=O)N2CCc3ccccc32)cc1 16.4 µM, CC(=O)c1c(C)n(CC(=O)NCc2ccc3c(c2)OCO3)c2ccccc12 5.8 µM, Cc1ccc(C)c(NC(=O)CN(C)C(=O)c2cccc(S(=O)(=O)N3CCN(Cc4ccccc4)CC3)c2)c1 11.6 µM, Cc1cccc(N2CCN(C(=O)c3ccccc3SCC(=O)N3CCCC3)CC2)c1C 23.1 µM, CCOc1ccc(/C=C/[N+](=O)[O-])c2ccccc12 25.9 µM, c1ccc(CNc2nc(-c3ccccn3)nc3ccccc23)cc1 16.4 µM, O=C(Oc1cccnc1)c1ccc([N+](=O)[O-])cc1Cl 1.03 µM, O=C(CN1CCN(C(=S)NC2CCCC2)CC1)Nc1ccc(Oc2ccccc2)cc1 16.4 µM
